Earlier results in publication PMC11006913.
Numbering of substitutions follows the chain as printed. The list shows a part of the results.

Assays:
Details in all cases: PBM; conditions not shown; double strand, one strand shown; scale: upbm affinity estimate (log intensity, higher = more binding, comparable within an allelic series)
ARX (Homo sapiens) = ARX (Homo sapiens) (UniProt Q96QS3)
ARX L343Q (Homo sapiens) = ARX L343Q (Homo sapiens) (UniProt Q96QS3)
ARX P353L (Homo sapiens) = ARX P353L (Homo sapiens) (UniProt Q96QS3)
ARX P353R (Homo sapiens) = ARX P353R (Homo sapiens) (UniProt Q96QS3)
ARX R332H (Homo sapiens) = ARX R332H (Homo sapiens) (UniProt Q96QS3)
ARX T333N (Homo sapiens) = ARX T333N (Homo sapiens) (UniProt Q96QS3)
[1] = biological target: T1, HESX1 E149K (Homo sapiens) (UniProt Q9UBX0)
T1 sequence: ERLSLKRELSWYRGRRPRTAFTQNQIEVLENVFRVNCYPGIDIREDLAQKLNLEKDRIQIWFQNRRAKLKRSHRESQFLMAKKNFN

[2] = biological target: T2, HESX1 N125S (Homo sapiens) (UniProt Q9UBX0)
T2 sequence: T1 sequence with N31S, K55E

[3] = biological target: T3, HESX1 R160C (Homo sapiens) (UniProt Q9UBX0)
T3 sequence: T1 sequence with K55E, R66C

ISX (Homo sapiens) = ISX (Homo sapiens) (UniProt Q2M1V0)
ISX R83Q (Homo sapiens) = ISX R83Q (Homo sapiens) (UniProt Q2M1V0)
[4] = biological target: PROP1 R112Q (Homo sapiens) (UniProt O75360)
[5] = biological target: PROP1 R99Q (Homo sapiens) (UniProt O75360)
[6] = biological target: HOXD13 I297V (Homo sapiens) (UniProt P35453)
[7] = biological target: HOXD13 I322L (Homo sapiens) (UniProt P35453)
[8] = biological target: HOXD13 N298S (Homo sapiens) (UniProt P35453)
[9] = biological target: HOXD13 Q325K (Homo sapiens) (UniProt P35453)
[10] = biological target: HOXD13 Q325R (Homo sapiens) (UniProt P35453)
[11] = biological target: HOXD13 R306W (Homo sapiens) (UniProt P35453)
[12] = biological target: HOXD13 S316C (Homo sapiens) (UniProt P35453)

Row | Sequence | binding signal (ARX (Homo sapiens)) | binding signal (ARX L343Q (Homo sapiens)) | binding signal (ARX P353L (Homo sapiens)) | binding signal (ARX P353R (Homo sapiens)) | binding signal (ARX R332H (Homo sapiens)) | binding signal (ARX T333N (Homo sapiens)) | binding signal [1] | binding signal [2] | binding signal [3] | binding signal (ISX (Homo sapiens)) | binding signal (ISX R83Q (Homo sapiens)) | binding signal [4] | binding signal [5] | binding signal [6] | binding signal [7] | binding signal [8] | binding signal [9] | binding signal [10] | binding signal [11] | binding signal [12]
1 | AGTAATTA [8-mer AGTAATTA] | 13.2 | 11.1 | 12.8 | 10.9 | 11.2 | 12.3 | 11.8 | 13 | 10.4 | 15.4 | 14.5 | 12.9 | 12.4 | – | – | – | – | – | – | –
2 | GGCAATTA [8-mer GGCAATTA] | 12.8 | 10.8 | 12.4 | 10.8 | 10.9 | 11.9 | 11.6 | 12.1 | 10.3 | 14.9 | 13.9 | 12.7 | 12.2 | – | – | – | – | – | – | –
3 | AGCCGGCT [8-mer AGCCGGCT] | 10.4 | 10 | 10.1 | 10 | 10.1 | 10.3 | – | – | – | 10.1 | 9.87 | – | – | – | – | – | – | – | – | –
4 | CTCCCGGC [8-mer CTCCCGGC] | 10 | 10.1 | 10.1 | 10 | 10.1 | 10.2 | – | – | – | 9.82 | 9.67 | – | – | – | – | – | – | – | – | –
5 | GGCCCGCC [8-mer GGCCCGCC] | 10.1 | 10.1 | 10.1 | 9.97 | 9.99 | 10.2 | – | – | – | 9.71 | 9.65 | – | – | – | – | – | – | – | – | –
6 | CAATTAAG [8-mer CAATTAAG] | 12.7 | 10.7 | 12.3 | 10.6 | 10.9 | 12 | 11.7 | 12.4 | 10.2 | 15.3 | 14.6 | 12.7 | 12.2 | – | – | – | – | – | – | –
7 | AGGGGGCC [8-mer AGGGGGCC] | 9.99 | 9.85 | 10 | 9.75 | 9.86 | 10.1 | – | – | – | 9.51 | 9.67 | – | – | – | – | – | – | – | – | –
8 | AACAATTA [8-mer AACAATTA] | 12.6 | 10.9 | 12 | 10.8 | 11 | 11.8 | 11.4 | 11.6 | 10.5 | 14.8 | 13.4 | 12.6 | 12.1 | – | – | – | – | – | – | –
9 | GGTAATTA [8-mer GGTAATTA] | 13.1 | 11 | 12.8 | 10.9 | 11.1 | 12.3 | 11.8 | 13.1 | 10.4 | 15.4 | 14.7 | 12.9 | 12.4 | – | – | – | – | – | – | –
10 | ATAATTGC [8-mer ATAATTGC] | 12.6 | 10.9 | 12.1 | 10.9 | 11.1 | 11.8 | 11.6 | 12.1 | 10.4 | 14.9 | 13.2 | 12.7 | 12.2 | – | – | – | – | – | – | –
11 | AATTAAAT [8-mer AATTAAAT] | 12.7 | 10.8 | 12.2 | 10.7 | 11 | 12 | 11.2 | 11.3 | 10.3 | 14.7 | 13.5 | 12.7 | 12.1 | – | – | – | – | – | – | –
12 | AATAATTA [8-mer AATAATTA] | 13 | 10.9 | 12.5 | 10.8 | 11.1 | 12.1 | 11.7 | 12.9 | 10.4 | 15.1 | 14.1 | 12.7 | 12.2 | – | – | – | – | – | – | –
13 | CAATTAGG [8-mer CAATTAGG] | 12.9 | 10.9 | 12.6 | 10.7 | 10.8 | 12 | 11.6 | 12.1 | 10.3 | 15 | 14.2 | 12.7 | 12.4 | – | – | – | – | – | – | –
14 | CGACCTCG [8-mer CGACCTCG] | 10.3 | 10.3 | 10.3 | 10.3 | 10.3 | 10.3 | – | – | – | – | – | – | – | 9.7 | 9.65 | 9.66 | 9.35 | 9.57 | 9.5 | 9.64
15 | ACCCCCCG [8-mer ACCCCCCG] | 10.2 | 10 | 10 | 9.86 | 9.96 | 10.2 | – | – | – | 9.76 | 9.79 | – | – | – | – | – | – | – | – | –
16 | CGAGGCCC [8-mer CGAGGCCC] | 10.2 | 10.1 | 10.3 | 10.1 | 10.2 | 10.2 | – | – | – | 9.75 | 9.8 | – | – | – | – | – | – | – | – | –
17 | CGGGCCCG [8-mer CGGGCCCG] | 10.2 | 9.95 | 10.1 | 9.96 | 10 | 10.3 | – | – | – | – | – | – | – | 9.96 | 9.91 | 9.93 | 9.41 | 9.6 | 9.41 | 9.77
18 | CGCCCAAG [8-mer CGCCCAAG] | 10.1 | 10.1 | 10.2 | 10.1 | 10.1 | 10.3 | – | – | – | 9.62 | 9.67 | – | – | – | – | – | – | – | – | –
19 | AATTATCT [8-mer AATTATCT] | 12.6 | 10.9 | 12.1 | 10.8 | 11.1 | 11.8 | 11.4 | 11.6 | 10.3 | – | – | 12.6 | 12.1 | – | – | – | – | – | – | –
20 | CCGGCGCA [8-mer CCGGCGCA] | 10.3 | 10.1 | 10.2 | 10.1 | 10.3 | 10.2 | – | – | – | – | – | – | – | – | – | – | – | – | – | –
21 | GAAATTGC [8-mer GAAATTGC] | 11.1 | 10.6 | – | 10.6 | – | – | – | – | – | – | – | – | – | – | – | – | – | – | – | –
22 | AATTAGCC [8-mer AATTAGCC] | 12.7 | 10.7 | 12.3 | 10.6 | 10.7 | 11.8 | – | – | – | 14.8 | 13.4 | – | 12.1 | – | – | – | – | – | – | –
